This note sets out measurements from a collection of fitness landscapes (doi:10.1016/j.celrep.2020.107928).

Whole data set: some 81,000 sequences, median “one-hybrid fitness for binding parS DNA” near -0.17, cut for the highest 2% near 0.51. This is one part of the list.

First the molecules themselves.
B1: Caulobacter ParB omega fusion; a variant is named by its letters at X, in order, B8GW30 (parent)
chain: MESVVVGEPGMSEGRRGLGRGLSALLGEVDAAPAQAPGEQLGGSREAPIEILQRNPDQPRRTFREEDLEDLSNSIREKGVLQPILVRPSPDTAGEYQIVAGERAWRAAQRAGLKTVPIMVRELDDLAVLEIGIIENVQRADLNVLEEALSYKVLMEKFERTQENIAQTIGKSXSHVANXMRLLXLPDEVQSYLVSGELTAXHARAIAAAADPVALAKQIIEGGLSVRETEALARKAPNLSAGKSKGGRPPRVKDTDTQALESDLSSVLGLDVSIDHRGSTGTLTITYATLEQLDDLCNRLTRGI

The variants in the assay derive from B1. The assay is described as follows: one-hybrid fitness for binding parS DNA (scaled: cognate 1, non-cognate 0); higher = stronger binding. As to conditions: with parS DNA site. The procedure, abridged: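 Values were rescaled so that cognate is 1 and non-cognate is 0. Each is a fitness, the log change in a variant's read ratio to wild type from Illumina reads of plasmids before and after selection, with three replicate libraries pooled and variants under 10 reads dropped. Selection of the Caulobacter ParB libraries, four specificity codons randomised, used E. coli USO with a HIS3 reporter, site 19 bp from the promoter, on M9-minus-histidine with 0.1 mM IPTG and 5 mM 3-AT for 48 hours at 37°C.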
Consider QSLA, for which the “one-hybrid fitness for binding parS DNA” value was at most 0.2.

Take KDSS: the “one-hybrid fitness for binding parS DNA” value was at most 0.2.

Regarding MQFT, the “one-hybrid fitness for binding parS DNA” value was at most 0.2.

Regarding QDWF, the “one-hybrid fitness for binding parS DNA” value was at most 0.2.

Consider TKTD, for which the “one-hybrid fitness for binding parS DNA” value is at most 0.2. Consider RRRL, for which the “one-hybrid fitness for binding parS DNA” value is at most 0.2. To CMWR belongs at most 0.2; to HSRF, at most 0.2; to DEKG, at most 0.2. Next, GRGD: at most 0.2.

For the variant SQHS, the “one-hybrid fitness for binding parS DNA” value was at most 0.2.

As to TPLT, the “one-hybrid fitness for binding parS DNA” value was at most 0.2. Next, SCPT: at most 0.2; VGMH: at most 0.2; YIAS: at most 0.2. Next, TTIT: at most 0.2; CSGT: at most 0.2; NLEC: at most 0.2.

Consider QTVN, for which the “one-hybrid fitness for binding parS DNA” value was at most 0.2.

With RAPQ, the “one-hybrid fitness for binding parS DNA” value is at most 0.2. Consider FQQS, for which the “one-hybrid fitness for binding parS DNA” value is at most 0.2. Take YACV: the “one-hybrid fitness for binding parS DNA” value was at most 0.2. Next, QQQM: at most 0.2; RCEF: at most 0.2.

As to QMKH, the “one-hybrid fitness for binding parS DNA” value was at most 0.2. On to LYLG, for which the “one-hybrid fitness for binding parS DNA” value is at most 0.2. To EIMG belongs at most 0.2; to TWHE, at most 0.2; to WSTF, at most 0.2. On to VLHF, for which the “one-hybrid fitness for binding parS DNA” value is at most 0.2. Next, HCYR: at most 0.2; DGDV: at most 0.2. Next, GLLD: at most 0.2. For the variant QFYS, the “one-hybrid fitness for binding parS DNA” value is at most 0.2. To KGMS belongs at most 0.2. Take YDTS: the “one-hybrid fitness for binding parS DNA” value is at most 0.2.

PLPS: the “one-hybrid fitness for binding parS DNA” value was at most 0.2. To WACG belongs at most 0.2; to FMGL, at most 0.2; to TPLA, at most 0.2. To RRWD belongs at most 0.2; to SYHT, at most 0.2.

On to KELG, for which the “one-hybrid fitness for binding parS DNA” value was at most 0.2. For the variant PVTG, the “one-hybrid fitness for binding parS DNA” value is at most 0.2. To NRDM belongs at most 0.2; to VCVR, at most 0.2.

As for MAMG, the “one-hybrid fitness for binding parS DNA” value was at most 0.2. To MDMR belongs at most 0.2; to FNPV, at most 0.2; to SIDW, at most 0.2. As for MQIG, the “one-hybrid fitness for binding parS DNA” value was 0.314. Take EQSS: the “one-hybrid fitness for binding parS DNA” value was at most 0.2. Consider SMLT, for which the “one-hybrid fitness for binding parS DNA” value is at most 0.2. With WQCC, the “one-hybrid fitness for binding parS DNA” value is at most 0.2. To QESC belongs at most 0.2. For the variant SICR, the “one-hybrid fitness for binding parS DNA” value was at most 0.2. AQNE: the “one-hybrid fitness for binding parS DNA” value was at most 0.2. As for NYMR, the “one-hybrid fitness for binding parS DNA” value is at most 0.2. To YVDC belongs at most 0.2; to FYEL, at most 0.2; to HSMM, at most 0.2. For the variant HTVF, the “one-hybrid fitness for binding parS DNA” value is at most 0.2. With GKND, the “one-hybrid fitness for binding parS DNA” value is at most 0.2.

Take FTSK: the “one-hybrid fitness for binding parS DNA” value is at most 0.2. Next, DCVD: at most 0.2; SWVC: at most 0.2; LTLI: at most 0.2. With VTIS, the “one-hybrid fitness for binding parS DNA” value was at most 0.2.

As for LYAS, the “one-hybrid fitness for binding parS DNA” value was at most 0.2. To KNNT belongs at most 0.2; to WQGR, at most 0.2; to TTWG, at most 0.2.

Take ANAI: the “one-hybrid fitness for binding parS DNA” value was at most 0.2. Next, TGFI: at most 0.2; IPAH: at most 0.2; EIIC: at most 0.2. Consider MHVS, for which the “one-hybrid fitness for binding parS DNA” value was at most 0.2.

With DWMV, the “one-hybrid fitness for binding parS DNA” value was at most 0.2.

For the variant DAAC, the “one-hybrid fitness for binding parS DNA” value was at most 0.2. To QAMM belongs at most 0.2; to CTSR, at most 0.2; to YTQS, at most 0.2. Next, ANTK: at most 0.2; RTMQ: 0.208. As for INPR, the “one-hybrid fitness for binding parS DNA” value was at most 0.2. With HKNG, the “one-hybrid fitness for binding parS DNA” value was at most 0.2. In the case of MRKW, the “one-hybrid fitness for binding parS DNA” value is at most 0.2.

With KRTT, the “one-hybrid fitness for binding parS DNA” value was at most 0.2. Consider AAKC, for which the “one-hybrid fitness for binding parS DNA” value was at most 0.2. ISKV: the “one-hybrid fitness for binding parS DNA” value was at most 0.2. To IKNT belongs at most 0.2.

In the case of CDTV, the “one-hybrid fitness for binding parS DNA” value was at most 0.2. For LDQV, the “one-hybrid fitness for binding parS DNA” value was at most 0.2. As to HIAE, the “one-hybrid fitness for binding parS DNA” value was at most 0.2. For WLAR, the “one-hybrid fitness for binding parS DNA” value is at most 0.2. Next, NCWT: at most 0.2; LACI: at most 0.2; QYNP: at most 0.2.

Take IGER: the “one-hybrid fitness for binding parS DNA” value was at most 0.2.

In the case of NRHY, the “one-hybrid fitness for binding parS DNA” value is at most 0.2. To AIGN belongs at most 0.2; to LAGC, at most 0.2.

As for VKQV, the “one-hybrid fitness for binding parS DNA” value is at most 0.2. Next, VREL: at most 0.2; CGMC: at most 0.2. Next, RTMD: at most 0.2; PDFS: at most 0.2. On to QSAN, for which the “one-hybrid fitness for binding parS DNA” value was at most 0.2. For GKQT, the “one-hybrid fitness for binding parS DNA” value is at most 0.2.

Regarding KMLG, the “one-hybrid fitness for binding parS DNA” value was at most 0.2.

As to CYWM, the “one-hybrid fitness for binding parS DNA” value is at most 0.2. To TNHV belongs at most 0.2; to SSTH, at most 0.2. Next, PHAR: at most 0.2; KAPW: at most 0.2. To DHSV belongs at most 0.2; to QTNI, at most 0.2. Consider HQLS, for which the “one-hybrid fitness for binding parS DNA” value was at most 0.2. Next, PPCN: at most 0.2; QDNY: at most 0.2. To SPQW belongs at most 0.2. To HGAL belongs at most 0.2. VFMV: the “one-hybrid fitness for binding parS DNA” value is at most 0.2. To KRNM belongs at most 0.2; to VKVT, at most 0.2. As to IWKN, the “one-hybrid fitness for binding parS DNA” value was at most 0.2.

Regarding PGGI, the “one-hybrid fitness for binding parS DNA” value was at most 0.2. Next, HTLF: at most 0.2; TQWT: at most 0.2. To PLPE belongs at most 0.2; to VGCV, at most 0.2; to SKGS, at most 0.2. As for METI, the “one-hybrid fitness for binding parS DNA” value was at most 0.2. Next, ESLW: at most 0.2; ANLH: at most 0.2. In the case of SCRA, the “one-hybrid fitness for binding parS DNA” value was at most 0.2.

For the variant TLSV, the “one-hybrid fitness for binding parS DNA” value is at most 0.2. Next, IRGG: at most 0.2. For LSIH, the “one-hybrid fitness for binding parS DNA” value is at most 0.2. Take GFAT: the “one-hybrid fitness for binding parS DNA” value was at most 0.2. Consider ANGI, for which the “one-hybrid fitness for binding parS DNA” value was at most 0.2. Next, NLAN: at most 0.2; SMFV: at most 0.2. With DVIG, the “one-hybrid fitness for binding parS DNA” value was at most 0.2. Next, PLTP: at most 0.2.

As for IDHV, the “one-hybrid fitness for binding parS DNA” value is at most 0.2.

In the case of CLIV, the “one-hybrid fitness for binding parS DNA” value was at most 0.2. To DCMM belongs at most 0.2; to IRCK, at most 0.2; to HSNA, at most 0.2. Regarding CTPL, the “one-hybrid fitness for binding parS DNA” value was at most 0.2. On to TAVF, for which the “one-hybrid fitness for binding parS DNA” value is at most 0.2. Next, SPIR: at most 0.2; NYPG: at most 0.2; MLFT: at most 0.2. Next, NQAR: at most 0.2.

As for LLMK, the “one-hybrid fitness for binding parS DNA” value is at most 0.2. With QIPR, the “one-hybrid fitness for binding parS DNA” value is at most 0.2. LDEC: the “one-hybrid fitness for binding parS DNA” value was at most 0.2. To INVR belongs at most 0.2.

With YSTR, the “one-hybrid fitness for binding parS DNA” value was at most 0.2. To ENRR belongs at most 0.2; to PRRS, at most 0.2; to QQPN, at most 0.2. To PVEC belongs at most 0.2. To DERP belongs at most 0.2; to ARYF, at most 0.2. With AMCP, the “one-hybrid fitness for binding parS DNA” value is at most 0.2.

As to TFKY, the “one-hybrid fitness for binding parS DNA” value is at most 0.2.

With CNRN, the “one-hybrid fitness for binding parS DNA” value is at most 0.2. For the variant DHPP, the “one-hybrid fitness for binding parS DNA” value is at most 0.2. To TDGM belongs at most 0.2. Take HAHK: the “one-hybrid fitness for binding parS DNA” value is at most 0.2. For the variant PYEL, the “one-hybrid fitness for binding parS DNA” value is at most 0.2.

On to SHMW, for which the “one-hybrid fitness for binding parS DNA” value was at most 0.2.

Turning to NEKI, the “one-hybrid fitness for binding parS DNA” value was at most 0.2. Next, NGVE: at most 0.2; HFMV: at most 0.2. As to IMWS, the “one-hybrid fitness for binding parS DNA” value is at most 0.2. On to RDYG, for which the “one-hybrid fitness for binding parS DNA” value was at most 0.2. GPAT: the “one-hybrid fitness for binding parS DNA” value was at most 0.2. Next, TMNG: at most 0.2. KTFT: the “one-hybrid fitness for binding parS DNA” value is at most 0.2. In the case of KYNW, the “one-hybrid fitness for binding parS DNA” value was at most 0.2. To KKSS belongs at most 0.2. To RVTM belongs 0.299; to TVLF, at most 0.2; to GKTF, at most 0.2. Regarding VKCT, the “one-hybrid fitness for binding parS DNA” value was at most 0.2. For the variant DGNR, the “one-hybrid fitness for binding parS DNA” value was at most 0.2.

Consider GQDP, for which the “one-hybrid fitness for binding parS DNA” value was at most 0.2. Regarding FRIR, the “one-hybrid fitness for binding parS DNA” value is at most 0.2. Next, PKAE: at most 0.2; CHQV: at most 0.2. Next, CLAE: at most 0.2.
